This passage reports nucleolar normality score results from the supplement of paper PMC10723795.

Where a name gives a salt, the structure may show the parent alone. Some of the results follow.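 How the source made its calls: active = more than 2 SD below the DMSO mean: under 0.85 at 10 µM or 0.885 at 1 µM; inactive = the rest.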 Single values are uncertain, as repeats are few or missing.

The test system of this experiment is RPE1. Nature of the experiment: nucleolar normality score relative to DMSO (fraction of DMSO control); RPE1 is a non-cancer human cell line; higher = more normal nucleoli (less nucleolar stress). The following applies: 24 h.
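Further: fixed cells immunolabelled for nucleolin and UBF, 40 image fields per well in 384-well plates, per-cell score = nucleolin nucleolar/nucleoplasm intensity ratio divided by the matching UBF ratio.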

With `CN(NC(=O)CC(=O)NN(C)C(=S)c1ccccc1)C(=S)c1ccccc1` [Elesclomol (STA-4783)], the nucleolar normality score was active: 0.505 (1 µM) and active: 0.592 (10 µM).

On to `C[C@H]1O[C@@H](O[C@H]2CC[C@@]3(C)[C@@H](CC[C@]4(C)[C@@H]3C=C[C@]35OC[C@@]6(CCC(C)(C)C[C@H]63)[C@@H](O)C[C@]54C)[C@]2(C)CO)[C@H](O)[C@@H](O[C@@H]2O[C@H](CO)[C@@H](O)[C@H](O)[C@H]2O)[C@H]1O` [Saikosaponin A], for which the nucleolar normality score is inactive: 0.964 (1 µM) and inactive: 0.993 (10 µM).

For `O=C(Cc1cccc(OC(F)(F)F)c1)Nc1ccc(CCCCc2nnc(NC(=O)Cc3ccccn3)s2)nn1`, the nucleolar normality score by setting is: (1 µM) active: 0.805; (10 µM) active: 0.787.

For `O=C(O)CCNc1cc(N2CCc3ccccc3CC2)nc(-c2ccccn2)n1`, the nucleolar normality score (1 µM) was inactive: 0.972 and the nucleolar normality score (10 µM) is inactive: 1.

With `COc1cc(CNC(=O)CCCCC=CC(C)C)ccc1O` [Capsaicin(Vanilloid)], the nucleolar normality score is, setting by setting: (1 µM) inactive: 1.03; (10 µM) inactive: 1.1.

`Cc1cc([N+](=O)[O-])ccc1NS(=O)(=O)c1cc(Cl)ccc1Cl`: the nucleolar normality score was inactive: 0.932 (1 µM) and inactive: 1.01 (10 µM).

On to `COc1ccc(-c2cc(=O)c3c(O)cc(O)cc3o2)cc1` [Acacetin], for which the nucleolar normality score was inactive: 1.01 (1 µM) and inactive: 1.03 (10 µM).

On to `Cc1ccc(NC(=O)c2ccc(CN3CCN(C)CC3)cc2)cc1Nc1nc(-c2cccnc2)cs1` [Masitinib (AB1010)], for which the nucleolar normality score (1 µM) is inactive: 1.03 and the nucleolar normality score (10 µM) is inactive: 1.1.

On to `O=C(Nc1cc(C(F)(F)F)ccc1N1CCCCC1)c1ccncc1`, for which the nucleolar normality score is, setting by setting: (1 µM) inactive: 0.969; (10 µM) inactive: 1.01.

As to `O=C(CCNC(=O)c1ccc(OC(F)(F)F)cc1)N[C@@H]1CCCc2ccccc21`, the nucleolar normality score reads like this: (1 µM) inactive: 1.05; (10 µM) inactive: 1.01.

`C[C@H]1[C@@H](O)O[C@@H]2O[C@@]3(C)CC[C@H]4[C@H](C)CC[C@@H]1[C@@]24OO3` [Dihydroartemisinin (DHA)]: the nucleolar normality score (1 µM) was inactive: 1.08 and the nucleolar normality score (10 µM) was inactive: 1.12.

`CN(C)c1ccc(C(=O)NCCCCCCC(=O)NO)cc1`: the nucleolar normality score by setting is: (1 µM) inactive: 1.1; (10 µM) inactive: 0.889.

Consider `O=S(=O)(O)c1ccc2cc(N=Nc3cc(S(=O)(=O)O)c4cccnc4c3O)ccc2c1`, for which the nucleolar normality score runs as follows: (1 µM) inactive: 0.952; (10 µM) inactive: 0.997.

Turning to `COc1cc2c(Oc3ccc4[nH]c(C)cc4c3F)ncnc2cc1OCCCN1CCCC1` [Cediranib (AZD2171)], the nucleolar normality score by setting is: (1 µM) inactive: 0.957; (10 µM) inactive: 0.972.

As to `COc1cc2c(Oc3ccc4[nH]c(C)cc4c3F)ncnc2cc1OCCCN1CCCC1` [Cediranib Maleate], the nucleolar normality score is, setting by setting: (1 µM) inactive: 1; (10 µM) inactive: 0.963.

With `CN(C)c1nc(N(C)C)nc(N(C)C)n1` [Altretamine], the nucleolar normality score runs as follows: (1 µM) inactive: 1.04; (10 µM) inactive: 1.14.

With `CCn1c(=O)c(-c2cc[nH]n2)cc2c(C)nc(N)nc21`, the nucleolar normality score is inactive: 0.906 (1 µM) and inactive: 0.98 (10 µM).

`COc1cc([C@@H]2c3cc4c(cc3[C@@H](O[C@@H]3O[C@@H]5CO[C@@H](C)O[C@H]5[C@H](O)[C@H]3O)[C@H]3COC(=O)[C@H]23)OCO4)cc(OC)c1O` [Etoposide]: the nucleolar normality score is, setting by setting: (1 µM) inactive: 1.03; (10 µM) inactive: 0.954.

For the compound `CCn1cc(-c2cccc(C(F)(F)F)c2)c2sc(C(=N)NC3CCS(=O)(=O)CC3)cc2c1=O`, the nucleolar normality score is inactive: 0.934 (1 µM) and inactive: 0.969 (10 µM).

With `O=C(O)/C=C/c1ccc(O)cc1` [p-Coumaric Acid], the nucleolar normality score runs as follows: (1 µM) inactive: 1.05; (10 µM) inactive: 0.92.

`CC(=O)Nc1nc(C)c(-c2ccc(Cl)c(S(=O)(=O)NCCO)c2)s1`: the nucleolar normality score is, setting by setting: (1 µM) inactive: 1.02; (10 µM) inactive: 0.988.

For `CCC1CC(=Cc2cccnc2)C(=O)C(=Cc2cccnc2)C1` (stereo unspecified), the nucleolar normality score reads like this: (1 µM) inactive: 1; (10 µM) inactive: 1.1.

`C=CC(=O)Nc1cccc(Oc2nc(Nc3ccc(N4CCN(C)CC4)cc3OC)ncc2Cl)c1`: the nucleolar normality score is, setting by setting: (1 µM) active: 0.801; (10 µM) active: 0.842.

In the case of `CC(C)CC(CC(=O)NO)C(=O)N[C@@H](Cc1ccc2ccccc2c1)C(=O)N[C@@H](C)C(=O)NCCN` (stereo partly specified), the nucleolar normality score is inactive: 0.934 (1 µM) and inactive: 1.02 (10 µM).

Take `CCC(C)C(NC(=O)CNC(=O)C(CC(=O)O)NC(=O)C(CO)NC(=O)C(N)Cc1cnc[nH]1)C(=O)NC(Cc1ccccc1)C(=O)NC(C(=O)NC(CC(=O)O)C(=O)NC(CO)C(=O)NC(Cc1ccc(O)cc1)C(=O)NC(CO)C(=O)NC(CCCNC(=N)N)C(=O)NC(Cc1ccc(O)cc1)C(=O)NC(CCCNC(=N)N)C(=O)NC(CCCCN)C(=O)NC(CCC(N)=O)C(=O)NC(CCSC)C(=O)NC(C)C(=O)NC(C(=O)NC(CCCCN)C(=O)NC(CCCCN)C(=O)C(=O)C(Cc1ccc(O)cc1)NC(=O)C(CC(C)C)NC(=O)C(C)NC(=O)C(C)NC(=O)C(NC(=O)C(CC(C)C)NC(=O)CNC(=O)C(CCCCN)NC(=O)C(CCCNC(=N)N)NC(=O)C(Cc1ccc(O)cc1)NC(=O)C(CCCCN)NC(=O)C(CCC(N)=O)NC(=O)C(CCCNC(=N)N)NC(=O)C(NC(=O)C(CCCCN)NC(=O)C(CC(N)=O)NC(=O)C(CCCCN)NN)C(C)C)C(C)C)C(C)C)C(C)O` (stereo unspecified): the nucleolar normality score (1 µM) was inactive: 1 and the nucleolar normality score (10 µM) was inactive: 1.05.

Regarding `Cc1ccccc1CN1C2=NCCN2C(=O)C2=C1CCN(Cc1ccccc1)C2` [TIC10 Analogue], the nucleolar normality score reads like this: (1 µM) inactive: 0.997; (10 µM) inactive: 1.04.

As for `CC[C@H](C)C(=O)O[C@H]1CCC=C2C=C[C@H](C)[C@H](CC[C@@H]3C[C@@H](O)CC(=O)O3)[C@H]21` [Mevastatin], the nucleolar normality score is inactive: 1.01 (1 µM) and active: 0.849 (10 µM).

Turning to `CS(=O)(=O)N1CCc2c(-c3cnc(N)nc3)nc(N3CCOCC3)nc21`, the nucleolar normality score was active: 0.746 (1 µM) and active: 0.62 (10 µM).

Regarding `CC(=O)[C@]1(O)Cc2c(O)c3c(c(O)c2[C@@H](O[C@H]2C[C@H](N)[C@H](O)[C@H](C)O2)C1)C(=O)c1ccccc1C3=O` [Idarubicin HCl], the nucleolar normality score by setting is: (1 µM) active: 0.569; (10 µM) active: 0.372.

`c1ccc(CNc2nc(NCc3ccccc3)c3ccccc3n2)cc1`: the nucleolar normality score runs as follows: (1 µM) inactive: 1.02; (10 µM) inactive: 1.06.

With `CCCOc1ccn2c(C(C)=O)cc(-c3ccccc3S(C)(=O)=O)c2c1`, the nucleolar normality score runs as follows: (1 µM) inactive: 0.994; (10 µM) inactive: 1.1.

With `Cc1nc(=O)c2cc(CN(C)c3ccc(C(=O)N[C@@H](CCC(=O)O)C(=O)O)s3)ccc2[nH]1` [Raltitrexed], the nucleolar normality score runs as follows: (1 µM) inactive: 1; (10 µM) inactive: 0.997.

For the compound `COCC[n+]1c2c(n(Cc3cnccn3)c1C)C(=O)c1ccccc1C2=O` [YM155 (Sepantronium Bromide)], the nucleolar normality score was active: 0.35 (1 µM) and active: 0.386 (10 µM).

For the compound `O=C(NCCO)c1cccc(-c2cc(Nc3ccc(OC(F)(F)F)cc3)ncn2)c1`, the nucleolar normality score runs as follows: (1 µM) inactive: 1; (10 µM) inactive: 1.01.

As for `COC(=O)C1=CC[C@@]23CC[C@@H]([C@@](C)(/C=C/C=C(\C)C(=O)O)OC2=O)[C@@]3(OC(C)=O)CC1` [Pseudolaric Acid B], the nucleolar normality score is, setting by setting: (1 µM) inactive: 1.03; (10 µM) inactive: 1.03.

As to `Cc1cc2c(F)c(Oc3ncnn4cc(OC[C@@H](C)OC(=O)[C@H](C)N)c(C)c34)ccc2[nH]1`, the nucleolar normality score is inactive: 1.03 (1 µM) and inactive: 1.13 (10 µM).

For `O=c1[nH]c(=O)n(C2CCCO2)cc1F` (stereo unspecified), the nucleolar normality score is inactive: 1.07 (1 µM) and inactive: 1.06 (10 µM).

In the case of `CCOC(=O)Nc1cc(-c2ccc(C)c(NS(C)(=O)=O)c2)nn2c(C)nnc12` [Bromosporine], the nucleolar normality score by setting is: (1 µM) inactive: 0.964; (10 µM) inactive: 1.05.

With `COc1cc2c3cc1Oc1c(OC)c(OC)cc4c1[C@@H](Cc1ccc(O)c(c1)Oc1ccc(cc1)C[C@@H]3N(C)CC2)N(C)CC4` [Berbamine (dihydrochloride)], the nucleolar normality score (1 µM) is inactive: 0.988 and the nucleolar normality score (10 µM) is inactive: 1.

As to `C#CC[C@H](c1nc2cc(Cl)ccc2c(=O)n1Nc1ccccc1)N(CCCN)C(=O)c1cccc(Cl)c1F`, the nucleolar normality score by setting is: (1 µM) inactive: 0.988; (10 µM) inactive: 0.86.

Regarding `C[C@@H]1CCN(C(=O)CC#N)C[C@@H]1N(C)c1ncnc2[nH]ccc12`, the nucleolar normality score is, setting by setting: (1 µM) inactive: 0.968; (10 µM) inactive: 0.867.

Consider `Cc1cc(Nc2ncnc3ccc(-c4ccc(CNCCS(C)(=O)=O)o4)cc23)ccc1Oc1ccn2ncnc2c1` [HER2-Inhibitor-1], for which the nucleolar normality score is inactive: 1 (1 µM) and inactive: 0.903 (10 µM).

For `Cc1cc(/N=N/c2ccc(S(=O)(=O)Nc3ccccn3)cc2)c(N)cc1O`, the nucleolar normality score is inactive: 0.977 (1 µM) and inactive: 0.985 (10 µM).

As to `COc1cc(O)c(CC=C(C)C)c(O)c1C(=O)/C=C/c1ccc(O)cc1` [Xanthohumol], the nucleolar normality score was inactive: 0.968 (1 µM) and inactive: 1.03 (10 µM).

Turning to `CO[C@@]12[C@H](COC(N)=O)C3=C(C(=O)C(C)=C(N)C3=O)N1C[C@@H]1N[C@@H]12` [Mitomycin C], the nucleolar normality score is, setting by setting: (1 µM) inactive: 0.942; (10 µM) inactive: 0.917.

For `CCCN(CCC)C(=O)C1=Cc2ccc(-c3ccc(C(=O)N4CCCC4)cc3)cc2N=C(N)C1` [Motolimod (VTX-2337)], the nucleolar normality score by setting is: (1 µM) inactive: 0.942; (10 µM) inactive: 0.996.

For `O=C1Nc2ccc(I)cc2C1=Cc1cc(Br)c(O)c(Br)c1`, the nucleolar normality score was inactive: 0.986 (1 µM) and inactive: 0.863 (10 µM).

Take `CN(C)CCOc1ccc(/C(=C(/CCCl)c2ccccc2)c2ccccc2)cc1` [Toremifene Citrate]: the nucleolar normality score (1 µM) is inactive: 1.03 and the nucleolar normality score (10 µM) is inactive: 1.06.

As to `CNC(=O)[C@H](Cc1c[nH]c2ccccc12)NC(=O)[C@@H](CC(=O)NO)CC(C)C` [Ilomastat (GM6001, Galardin)], the nucleolar normality score is, setting by setting: (1 µM) inactive: 0.91; (10 µM) inactive: 0.928.

Regarding `COC(=O)CNC(=O)C(=O)OC`, the nucleolar normality score is inactive: 1.04 (1 µM) and inactive: 1.1 (10 µM).

Regarding `CNC(=O)c1cc(COc2nnc(Nc3ccc(Cl)cc3)c3ccoc23)ccn1` [Telatinib], the nucleolar normality score (1 µM) was inactive: 1.06 and the nucleolar normality score (10 µM) was inactive: 1.14.

Regarding `COc1cc2nccc(Oc3ccc(NC(=O)C4(C(=O)Nc5ccc(F)cc5)CC4)cc3)c2cc1OC` [Cabozantinib malate (XL184)], the nucleolar normality score (1 µM) is inactive: 1.05 and the nucleolar normality score (10 µM) was inactive: 0.94.

For `Cc1cc([C@@H](C)Nc2ccccc2C(=O)O)c2nc(N3CCOCC3)cc(=O)n2c1`, the nucleolar normality score (1 µM) was inactive: 0.965 and the nucleolar normality score (10 µM) was inactive: 1.05.
